Assay in all cases: cell count relative to DMSO control; melanoma cells; higher = more viable cells
What all share (details): library dose: low library concentration; 72 h

The subject of assay [1] is WM115.
For assay [2], the system named is WM1716.
Assay [3] has as its system WM1745.
The test system of assay [4] is WM3526.
Assay [5] has as its system WM3619.
In assay [6] the test system is WM451Lu.

This is one part of the list. Most values come without repeats; read them as rough.
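Also: cell number obtained by counting DAPI-stained nuclei in high-throughput microscope images with image analysis software, screen run in 1,536-well plates.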

On to `CC[C@]1(O)C[C@H]2CN(CCc3c([nH]c4ccccc34)[C@@](C(=O)OC)(c3cc4c(cc3OC)N(C=O)[C@H]3[C@@](O)(C(=O)OC)[C@H](OC(C)=O)[C@]5(CC)C=CCN6CC[C@]43[C@@H]65)C2)C1` [vincristine] + CN(NC(=O)CC(=O)NN(C)C(=S)c1ccccc1)C(=S)c1ccccc1 [STA4783] (first compound 0.0001 µM, partner dose 0.006 µM), for which the cell count in assay [1] came out at 32.3%; in assay [2], 36.6%; in assay [3], 54.7%; in assay [4], 50.1%; in assay [5], 37.1%; in assay [6], 49.9%.

Turning to `Cc1cc(Nc2cc(N3CCN(C)CC3)nc(Sc3ccc(NC(=O)C4CC4)cc3)n2)n[nH]1` [Tozasertib] + C=CCn1c(=O)c2cnc(Nc3ccc(N4CCN(C)CC4)cc3)nc2n1-c1cccc(C(C)(C)O)n1 [MK1775] (first compound 0.006 µM, partner dose 0.02 µM), the cell count in assay [1] was found to be 84.7%; in assay [2], 87.2%; in assay [3], 48%; in assay [4], 112%; in assay [5], 127%; in assay [6], 111%.

As for `N#CC[C@H](C1CCCC1)n1cc(-c2ncnc3[nH]ccc23)cn1` [ruxolitinib] + COc1cc2c(Oc3ccc4[nH]c(C)cc4c3F)ncnc2cc1OCCCN1CCCC1 [cediranib] (first compound 1 µM, partner dose 0.4 µM), the cell count in assay [1] came out at 117%; in assay [2], 106%; in assay [3], 103%; in assay [4] it was 140%; in assay [5], 132%; in assay [6] it was 96.6%.

As to `Cc1cc(Nc2cc(N3CCN(C)CC3)nc(Sc3ccc(NC(=O)C4CC4)cc3)n2)n[nH]1` [Tozasertib] + CC(C)CCN1c2nc(Nc3cc(F)c(O)c(F)c3)ncc2N(C)C(=O)C1C [BID1870] (first compound 0.006 µM, partner dose 0.2 µM), the cell count in assay [1] was 74.4%; in assay [2], 95.8%; in assay [3], 88.7%; in assay [4], 88.2%; in assay [5] it was 106%; in assay [6] it was 96.9%.

Consider `CC[C@]1(O)C[C@H]2CN(CCc3c([nH]c4ccccc34)[C@@](C(=O)OC)(c3cc4c(cc3OC)N(C=O)[C@H]3[C@@](O)(C(=O)OC)[C@H](OC(C)=O)[C@]5(CC)C=CCN6CC[C@]43[C@@H]65)C2)C1` [vincristine] + CO[C@H]1C[C@@H]2CC[C@@H](C)[C@@](O)(O2)C(=O)C(=O)N2CCCC[C@H]2C(=O)O[C@H]([C@H](C)C[C@@H]2CC[C@@H](OCCO)[C@H](OC)C2)CC(=O)[C@H](C)/C=C(\C)[C@@H](O)[C@@H](OC)C(=O)[C@H](C)C[C@H](C)/C=C/C=C/C=C/1C [everolimus] (first compound 0.0001 µM, partner dose 0.02 µM), for which the cell count in assay [1] was 41.8%; in assay [2], 36.6%; in assay [3], 72.4%; in assay [4], 56.8%; in assay [5], 43.4%; in assay [6] it was 43.1%.

As to `CC[C@]1(O)C[C@H]2CN(CCc3c([nH]c4ccccc34)[C@@](C(=O)OC)(c3cc4c(cc3OC)N(C=O)[C@H]3[C@@](O)(C(=O)OC)[C@H](OC(C)=O)[C@]5(CC)C=CCN6CC[C@]43[C@@H]65)C2)C1` [vincristine] + O=S(=O)(c1ccccc1)N(CC(F)(F)F)c1ccc(C(O)(C(F)(F)F)C(F)(F)F)cc1 [T0901317] (first compound 0.0001 µM, partner dose 1.4 µM), the cell count is 42.1% in assay [1]; 31.5% in assay [2]; 64.8% in assay [3]; 55.8% in assay [4]; 52.8% in assay [5]; 42.2% in assay [6].

Take `Cc1cc(Nc2cc(N3CCN(C)CC3)nc(Sc3ccc(NC(=O)C4CC4)cc3)n2)n[nH]1` [Tozasertib] + Nc1cccc2c1CN(C1CCC(=O)NC1=O)C2=O [lenalidomide] (first compound 0.006 µM, partner dose 1 µM): the cell count in assay [1] was found to be 83.5%; in assay [2], 93.1%; in assay [3], 81.7%; in assay [4], 92.5%; in assay [5], 95.6%; in assay [6], 104%.

With `Cc1cc(Nc2cc(N3CCN(C)CC3)nc(Sc3ccc(NC(=O)C4CC4)cc3)n2)n[nH]1` [Tozasertib] + CN1CCN(c2ccc3nc(-c4c(N)c5c(F)cccc5[nH]c4=O)[nH]c3c2)CC1 [Dovitinib] (first compound 0.006 µM, partner dose 0.1 µM), the cell count turned out to be 97.8% in assay [1]; 103% in assay [2]; 76.3% in assay [3]; 90.6% in assay [4]; 82.5% in assay [5]; 82.8% in assay [6].

Regarding `Cc1cc(Nc2cc(N3CCN(C)CC3)nc(Sc3ccc(NC(=O)C4CC4)cc3)n2)n[nH]1` [Tozasertib] + CCCS(=O)(=O)Nc1ccc(F)c(C(=O)c2c[nH]c3ncc(Cl)cc23)c1F [PLX4720] (first compound 0.006 µM, partner dose 0.08 µM), the cell count is 87.2% in assay [1]; 103% in assay [2]; 89% in assay [3]; 84.2% in assay [4]; 90.7% in assay [5]; 90.1% in assay [6].

With `CC[C@]1(O)C[C@H]2CN(CCc3c([nH]c4ccccc34)[C@@](C(=O)OC)(c3cc4c(cc3OC)N(C=O)[C@H]3[C@@](O)(C(=O)OC)[C@H](OC(C)=O)[C@]5(CC)C=CCN6CC[C@]43[C@@H]65)C2)C1` [vincristine] + Oc1cc(-c2nc(-c3ccccc3)[nH]c2-c2ccncc2)ccc1Cl [L779450] (first compound 0.0001 µM, partner dose 0.2 µM), the cell count amounted to 45% in assay [1]; 47.9% in assay [2]; 90.3% in assay [3]; 57.1% in assay [4]; 60.1% in assay [5]; 58% in assay [6].

The values are drawn from the supplement of paper PMC4604168 (melanoma cell lines).
